Results as given in the supplement of paper PMC3334620.
The full ranking holds about 33,000 sequences; the median of “E-score (-0.5 to 0.5)” is about -0.012, and the highest 2% start at about 0.29. Some of the results follow.

Target: T1, Ybr033w (UniProt P38073)
T1 sequence: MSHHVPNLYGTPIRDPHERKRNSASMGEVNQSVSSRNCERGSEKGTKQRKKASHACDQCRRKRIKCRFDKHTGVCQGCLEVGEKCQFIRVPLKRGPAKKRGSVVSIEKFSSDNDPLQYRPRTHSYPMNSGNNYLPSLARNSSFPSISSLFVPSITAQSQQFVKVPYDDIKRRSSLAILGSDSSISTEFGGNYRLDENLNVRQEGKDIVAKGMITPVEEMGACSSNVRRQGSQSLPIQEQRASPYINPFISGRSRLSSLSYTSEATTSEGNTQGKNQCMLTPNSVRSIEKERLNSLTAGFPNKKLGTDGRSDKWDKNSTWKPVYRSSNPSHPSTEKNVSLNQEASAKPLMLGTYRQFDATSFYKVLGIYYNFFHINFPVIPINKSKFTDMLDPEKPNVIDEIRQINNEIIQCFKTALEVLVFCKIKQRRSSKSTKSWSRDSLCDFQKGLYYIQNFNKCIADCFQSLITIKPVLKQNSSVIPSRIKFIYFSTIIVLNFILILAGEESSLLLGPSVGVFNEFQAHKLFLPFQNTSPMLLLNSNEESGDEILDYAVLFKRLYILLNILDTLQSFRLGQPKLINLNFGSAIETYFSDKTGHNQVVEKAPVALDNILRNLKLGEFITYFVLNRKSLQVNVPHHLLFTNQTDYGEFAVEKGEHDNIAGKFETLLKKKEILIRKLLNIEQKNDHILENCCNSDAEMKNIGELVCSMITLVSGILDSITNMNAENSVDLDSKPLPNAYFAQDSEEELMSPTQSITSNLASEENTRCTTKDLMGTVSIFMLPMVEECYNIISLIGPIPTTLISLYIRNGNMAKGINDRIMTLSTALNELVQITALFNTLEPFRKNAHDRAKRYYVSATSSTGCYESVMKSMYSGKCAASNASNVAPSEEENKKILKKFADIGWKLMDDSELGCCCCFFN
Experiment: PBM E-score (8-mer binding enrichment) (E-score (-0.5 to 0.5)); higher = stronger / more preferred TF binding; most listed sequences are background and not binding sites
Details: protein concentration: 200 nM; construct: GST-full length
Procedure, shortened: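 Universal all-10-mer Agilent arrays, fresh or stripped once, were converted to double-stranded form by primer extension. GST-tagged yeast transcription factors from PURExpress in vitro transcription/translation, full-length or DNA-binding domain only, were applied at about 100-200 nM and detected with fluorescent anti-GST. After masliner normalisation, the Universal PBM Analysis Suite scored each ungapped eight-base word together with its reverse complement by E-score.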

Sequence	PBM E-score
ATATTTTC	0.342
TGGTTTAA	0.255
ATTCCCCC	-0.147
ATCTCGTG	-0.0243
ATCACTCC	-0.0156
ATACGCAG	-0.01
CACGCCCC	-0.196
GTGCAGTA	-0.0549
GAGCTGGA	0.0531
GCCAACAC	0.0424
CAATCTTC	0.236
ACGCTTCT	-0.2
CCCGTACA	-0.255
CGACTGAC	-0.0983
GATAGCTA	-0.114
CAAATATC	0.269
GTACCAGA	0.0617
CTCCCTGA	-0.281
ATATTGAG	0.259
AAGCTAAC	0.0872
AGACCCAT	-0.132
ACGGAGAA	0.23
AATTGCCT	0.0818
CCGTCTTC	-0.07
CACCAAAG	0.00707

Sequence	PBM E-score
CTACCTGA	-0.0586
ATGAACCC	0.0926
GGTGCAGA	-0.25
CGGGAGCA	-0.0612
CACTTTGC	0.00727
GCAGCAAC	0.0167
TATGTCCA	-0.0788
AGCGCTGG	0.0307
AATCCATT	0.231
AACTTCCA	0.103
AGGCCGAT	-0.157
GATGCAGC	0.0528
CAATTTCC	0.195
ATACATCC	0.164
CAACTAGG	0.0621
GACCGCCA	-0.199
AACTTGGG	-0.12
AAGCTCGC	-0.0765
CGTGAGTA	0.0154
ATGATCTC	0.0117
CAACCGCA	0.0511
CACCACCC	-0.0879
CGTACTTA	0.0098
CACTCTGG	0.00684
AGCCAATA	-0.0344

Sequence	PBM E-score
GAGAAGGC	-0.221
AAATAGTC	0.0679
GGAATCTA	0.11
CACTCCCC	-0.0144
CCATGGGG	-0.113
CGAGGTGA	-0.0327
AGTGGCAC	-0.239
CGGTAACC	-0.242
ACCGCTCC	-0.141
ACAGTCAT	0.00445
AACAGTCA	0.106
ATGAAGAG	0.0478
GTTCAAAC	0.00137
CTTCGAAA	0.0727
AAGTGAGG	-0.14
ATGACTCA	0.0306
CAAGAATA	0.24
ATCTACGC	0.0459
TAAAAGAA	0.269
TGGTAGAA	0.0488
CAGGCGGG	-0.192
CCCTACCG	-0.265
CATACTGC	0.0124
TGCACACA	0.0112
CTTCGATC	0.0364

Sequence	PBM E-score
CATGGCCG	-0.0287
CACAACGG	-0.172
GATCCGTA	-0.0738
CCTTGAGC	-0.0532
ATGGAAGG	-0.163
AAGCCGTC	-0.0475
GAACCTGC	0.0378
AGATTTAC	0.203
ACTGTCAT	-0.033
AAGAACAA	0.238
GGAGAGAA	0.0966
AAACAGGC	-0.216
ATGGTACC	-0.177
AGAATGTG	-0.0232
CCTGCCCG	-0.354
GTGAGATA	0.0437
CTTTACCA	0.0707
CCGTGCCG	-0.149
CCACGAAG	-0.0653
ATCCGAGC	-0.148
CACGCCAG	-0.297
AGACTAAA	-0.0471
CGTACAAA	0.0238
CAGAAGAG	-0.202
ACTATCTA	0.197

Sequence	PBM E-score
ATTCCGTG	0.16
GAGAAGAC	-0.0277
AGGAAGAT	0.323
AAATTTGT	0.303
CCGTCGCG	-0.0599
GGTGTTTA	0.00691
GAGCAAGA	-0.0424
CAGCCTCG	-0.177
GTTCGGGA	0.0767
CCGAGAGG	-0.271
AGGAGTCG	-0.167
GCGACTGA	-0.0799
GTGTTAGA	0.0758
AAATCTAG	0.132
ATGCCAAC	0.0348
CAACGATA	0.187
CAGCACAG	0.152
AGATCCGC	-0.107
TCAGGCGA	-0.157
ATTAGTGC	0.199
GCTGGCAA	0.108
GAACAATA	0.412
AATAGGGA	0.0137
CACAGCGG	-0.122
CCATGCCC	-0.28

Sequence	PBM E-score
CTCACGCA	0.233
CCTGGATC	-0.0578
CTGCGCAG	-0.171
ATCTTCTC	0.0573
CGAACCTA	-0.0369
ACCCGCAA	-0.137
ACTTGTTA	0.106
ATTATAAC	0.0262
CTGGGCCA	-0.304
ATTCGATC	0.0598
ACTGAAGT	0.175
GACAGGCA	-0.0644
GTGGGTAA	-0.0878
CACGCGCC	-0.048
CGGTGTAA	-0.044
AAAGTATT	0.22
GGTATAGA	0.0722
GAGCAGGC	-0.231
TAGGCCAA	0.0127
ATCATAAG	0.0948
AGCCCCGA	-0.181
CGCTCAAC	-0.0141
AGCAGGAT	-0.0861
ACCCCCGC	-0.302
ACATTCGA	-0.00563

Sequence	PBM E-score
ATAATAAT	0.305
GTTGGGAA	-0.0729
GAACAGAC	-0.00445
AGCCGGGC	-0.249
GGGATATA	0.158
ATGTTTAC	0.15
CACGTCAG	-0.118
ATAACTAA	0.239
ACTGGTCC	-0.135
CGTAGGAG	-0.204
GGAGGTGA	0.0453
TCCATCAA	0.312
AAACCTTG	-0.00773
GGCATTAA	-0.067
GGCTGCAC	-0.177
GATGCTTA	-0.0956
AGTCAACC	-0.0562
GCGCAGAA	0.122
AAGTATCT	0.154
AAACAATG	0.157
AATAAATG	0.194
CGCCTGTA	-0.0767
